# Source: the supplement of paper PMC8285479
# Values joined by “and” are separate entries in the source; they are usually repeats but may differ in a detail not shown here. Equal values may be shown once. Where a name gives a salt, the structure may show the parent alone. ± gives the standard deviation of the averaged measurements. In all, about 1,900 compounds were measured (“normalised cell viability (NPI; 0 = phenylarsine oxide control, 1 = DMSO control)”: median about 1, lowest 2% from about 0.039 on). Some of the results follow.
# Tested on: NCI-H1944
# Experiment: normalised cell viability (NPI; 0 = phenylarsine oxide control, 1 = DMSO control) (fraction of DMSO control); NCI-H1944 is a non-small cell lung cancer line; higher = more viable cells (less compound toxicity)
# Settings: 6 days
# [1] = glucocorticoid arm: hydrocortisone 2.75 uM co-treatment, compound 1 µM
# [2] = glucocorticoid arm: hydrocortisone 2.75 uM co-treatment, compound 5 µM
# [3] = glucocorticoid arm: hydrocortisone 2.75 uM pre-treated 2 days and continued, compound 1 µM
# [4] = glucocorticoid arm: hydrocortisone 2.75 uM pre-treated 2 days and continued, compound 5 µM
# [5] = glucocorticoid arm: vehicle, compound 1 µM
# [6] = glucocorticoid arm: vehicle, compound 5 µM
# 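Further: CTB read-out in 384-well plates, mean of triplicate wells, normalised per plate against 1 µM phenylarsine oxide and 0.1% DMSO, compounds added 24 h after seeding.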
Compound,normalised cell viability [1],normalised cell viability [2],normalised cell viability [3],normalised cell viability [4],normalised cell viability [5],normalised cell viability [6]
CC(C)(C)c1ccc(C(O)CCCN2CCC(C(O)(c3ccccc3)c3ccccc3)CC2)cc1 (configuration not stated) [Terfenadine],0.997 ± 0.0027,0.9833 ± 0.0051,1.03 ± 0.017,1.03 ± 0.017,0.9927 ± 0.006,0.0387 ± 0.043
C=C1C(=O)O[C@@H](CCC)[C@@H]1C(=O)O [Butyrolactone 3],1 ± 0.013,1.02 ± 0.015,0.998 ± 0.013,1.017 ± 0.0082,0.996 ± 0.0046,1.001 ± 0.0075
CCCCN1CCCCC1C(=O)Nc1c(C)cccc1C (configuration not stated) [Bupivacaine HCl],1.02 ± 0.011,0.995 ± 0.016,1.023 ± 0.0058,1.02 ± 0.016,0.999 ± 0.0017,0.9923 ± 0.005
C[N+](C)(C)CCCCCNCC12CC3CC(CC(C3)C1)C2,1 ± 0.0092,0.973 ± 0.033,1.01 ± 0.013,0.985 ± 0.016,0.9897 ± 0.0035,0.9947 ± 0.0031
N[C@H](CO)C(=O)O [D-Serine],1.013 ± 0.0058,1.04 ± 0.06,0.896 ± 0.27,1.02 ± 0.01,1.02,1.017 ± 0.0058
NC(Cc1cccc(-c2ccccc2CP(=O)(O)O)c1)C(=O)O (stereo not drawn) [Phenylbenzene-omega-phosphono-alpha-amino acid],0.9963 ± 0.0055,1.1 ± 0.021,1.06 ± 0.087,1.04 ± 0.021,1.017 ± 0.0058,1.03 ± 0.01
O=S(=O)(c1cccc2cnccc12)N1CCNCC1,1.01 ± 0.011,1.02 ± 0.017,1.002 ± 0.0076,1.01 ± 0.021,0.9987 ± 0.0023,1.003 ± 0.0058
COC(=O)Nc1ccc(-c2nc(N3CCOCC3)c3cnn(C4CCN(Cc5cccnc5)CC4)c3n2)cc1,0.606 ± 0.025,0.78 ± 0.031,0.692 ± 0.015,0.804 ± 0.046,0.651 ± 0.039,0.934 ± 0.02
Nc1ncn([C@H]2C[C@H](O)[C@@H](CO)O2)c(=O)n1 [Decitabine],1.1 and 1.06,,1.08 and 1.05,,,
Nc1ncn([C@H]2C[C@H](O)[C@@H](CO)O2)c(=O)n1 [5-Aza-2'-deoxycytidine],1.087 ± 0.0058,1.12 ± 0.05,1.07 ± 0.01,1.09 ± 0.015,0.581 ± 0.051,0.296 ± 0.027
Nc1ncn([C@H]2C[C@H](O)[C@@H](CO)O2)c(=O)n1 [5-Aza-2'-deoxycytidine; Decitabine],1.073 ± 0.0058,1.15 ± 0.026,1.07 ± 0.01,1.1 ± 0.02,0.204 ± 0.009,0.22 ± 0.021
NCCCCNCCCN [Spermidine trihydrochloride],0.993 ± 0.015,0.991 ± 0.016,1.01 ± 0.021,0.9607 ± 0.0025,0.9847 ± 0.0095,0.997 ± 0.011
O=C(Cc1ccc(-c2ccc(OCCN3CCOCC3)cc2)cn1)NCc1ccccc1,0.235 ± 0.021,0.258 ± 0.015,0.464 ± 0.041,0.518 ± 0.077,0.0379 ± 0.0028,0.0359 ± 0.0039
CCOC(=O)[C@]12CC1/C(=N\O)c1ccccc1O2 (some centres not stated),1.017 ± 0.0058,1.01 ± 0.024,1.007 ± 0.0058,1.02,0.997 ± 0.013,1.002 ± 0.0068
CC(C)N(CCCNC(=O)Nc1ccc(C(C)(C)C)cc1)C[C@H]1O[C@@H](n2ccc3c(N)ncnc32)[C@H](O)[C@@H]1O,1.003 ± 0.0058,1.07 ± 0.025,0.984 ± 0.0053,1.04 ± 0.01,1.002 ± 0.0068,1.002 ± 0.0076
CCS(=O)(=O)Nc1ccc2[nH]c(O)c(C(=Nc3ccc(CN4CCCCC4)cc3)c3ccccc3)c2c1 [Hesperadin],0.435 ± 0.035,0.396 ± 0.068,0.419 ± 0.087,0.51 ± 0.08,0.371 ± 0.08,0.218 ± 0.035
Cc1cc(Nc2ccc(NC(=O)c3ccc(Nc4ccnc5ccccc45)cc3)cc2)nc(N)n1,0.99 ± 0.017,-0.000696 ± 0.0048,0.9783 ± 0.0035,0.492 ± 0.5,1.006 ± 0.0075,0.000819 ± 0.0006
CCC(NC(C)C)C(O)c1ccc(O)c(O)c1 (configuration not stated) [Isoetharine mesylate],0.9837 ± 0.0045,0.997 ± 0.014,0.9953 ± 0.0042,1.01 ± 0.088,0.993 ± 0.0027,0.999 ± 0.011
CNC(CC(=O)O)C(=O)O [NMDA (N-Methyl-D-aspartic acid)],1.006 ± 0.0069,1.03 ± 0.037,1.01 ± 0.032,1.01 ± 0.013,1.003 ± 0.0058,0.9973 ± 0.0025
CCOC(=O)C(C)(C)Oc1ccc(Cl)cc1 [Clofibrate],1.02 ± 0.011,0.9977 ± 0.004,1.02 ± 0.015,0.999 ± 0.016,0.998 ± 0.014,1.01
"c1cnc2c(c1)ccc1cccnc12 [1,10-Phenanthroline monohydrate]",0.9727 ± 0.0075,0.239 ± 0.034,1.01 ± 0.03,0.848 ± 0.024,0.9677 ± 0.0031,0.082 ± 0.0079
CC(C)NC[C@H](O)COc1ccc(CC(N)=O)cc1 [S(-)-Atenolol],0.993 ± 0.0036,0.9927 ± 0.0063,1.006 ± 0.0063,0.994 ± 0.0085,1.01 ± 0.015,1.003 ± 0.0064
CO[C@@]1(NC(=O)CSCC#N)C(=O)N2C(C(=O)O)=C(CSc3nnnn3C)CS[C@@H]21 [Cefmetazole sodium salt],0.9883 ± 0.009,0.995 ± 0.014,0.9853 ± 0.0087,0.9805 ± 0.0035,0.9703 ± 0.0075,0.9723 ± 0.004
O=C(O)c1ccccc1Nc1ccccc1 [N-Phenylanthranilic acid],0.997 ± 0.0017,0.988 ± 0.0089,0.996 ± 0.013,0.983 ± 0.023,0.982 ± 0.016,0.9863 ± 0.0061
C=CC[C@H](N)C(=O)O [L-allylglycine],0.997 ± 0.011,0.998 ± 0.021,1 ± 0.014,1.01 ± 0.025,0.995 ± 0.015,0.9967 ± 0.0049
Brc1ccc([C@H]2CN3CCSC3=N2)cc1 [S(-)-p-Bromotetramisole oxalate],0.9827 ± 0.0057,0.975 ± 0.019,0.97933 ± 0.00058,0.9875 ± 0.005,0.978 ± 0.0095,0.9813 ± 0.0011
